Measurements taken from the BET-seq Pho4 binding data (Le et al. 2018).
This is one part of the list. These are noisy estimates, calculated here from bound and input reads.

biological target: T1, Pho4 (S. cerevisiae) (UniProt P07270); assay: relative binding free energy (BET-seq); higher = weaker binding; conditions: reference: library average
T1 sequence: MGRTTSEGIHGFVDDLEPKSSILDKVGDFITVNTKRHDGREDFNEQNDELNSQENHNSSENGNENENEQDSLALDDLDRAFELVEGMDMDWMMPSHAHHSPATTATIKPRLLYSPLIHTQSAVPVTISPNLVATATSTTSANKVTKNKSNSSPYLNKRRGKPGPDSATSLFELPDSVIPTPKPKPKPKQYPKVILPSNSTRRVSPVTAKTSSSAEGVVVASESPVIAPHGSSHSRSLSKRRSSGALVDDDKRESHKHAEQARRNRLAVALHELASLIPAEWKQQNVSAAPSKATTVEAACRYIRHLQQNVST

Row | Sequence | relative binding free energy [kcal/mol]
1 | TAGGTCACGTGAATGA | 0.27
2 | TAACTCACGTGGTGGA | 0.15
3 | GTGTGCACGTGGGGTG | -0.1
4 | ATGATCACGTGCGGTG | 0.09
5 | CGTGTCACGTGGGATG | -0.09
6 | CTAGGCACGTGTATTT | -0.15
7 | TGTATCACGTGGTAAT | 0.07
8 | TAATACACGTGCTTGT | 0.07
9 | AGGGTCACGTGTATCG | 0.13
10 | GTCGACACGTGGGTGT | -0.04
11 | AGGTGCACGTGTGGCC | -0.08
12 | CAATACACGTGTTTTT | 0.16
13 | TAGTTCACGTGGCCGG | 0.06
14 | GTTTTCACGTGAGTGG | 0.38
15 | TTGTGCACGTGGCCGG | -0.12
16 | TGGAGCACGTGGGAGG | -0.04
17 | TGGAGCACGTGTTCTT | -0.05
18 | TTTCGCACGTGAGGTA | 0.19
19 | TGAGCCACGTGGGAGC | -0.06
20 | TGGCACACGTGGATGT | 0.13
21 | GATGACACGTGTATGT | 0.18

Row | Sequence | relative binding free energy [kcal/mol]
22 | GTCGTCACGTGAGGGT | 0.29
23 | TCATGCACGTGTTAAG | 0.02
24 | TGAGGCACGTGTAGGT | -0.07
25 | CTTGTCACGTGCTGGC | 0.11
26 | ATTGGCACGTGTCTTT | -0.2
27 | ACGAGCACGTGTTGGT | -0.07
28 | TGGGCCACGTGTGTTA | -0.05
29 | TTGTACACGTGGTTAC | 0.05
30 | CAGTTCACGTGTGTGG | 0.22
31 | AAGTTCACGTGTGTTG | 0.35
32 | GATTTCACGTGATGAT | 0.4
33 | TGAGGCACGTGTGAGG | -0.05
34 | AAAGGCACGTGTTTAG | -0.26
35 | AATTGCACGTGGTAAG | -0.08
36 | GATGGCACGTGGCAAG | -0.1
37 | TAATGCACGTGTATCG | -0.02
38 | GAGGTCACGTGGAAGA | 0.23
39 | CTATTCACGTGAGAGT | 0.3
40 | AGGAGCACGTGCGGTG | -0.06
41 | GAGCGCACGTGGGGAA | -0.15
42 | ATATGCACGTGAGTTA | 0

Row | Sequence | relative binding free energy [kcal/mol]
43 | ATTGGCACGTGTTTAA | -0.14
44 | TGCAGCACGTGGTAGA | -0.06
45 | CTGGCCACGTGGGAGG | -0.23
46 | CTCTGCACGTGGGTGT | -0.21
47 | GGGTTCACGTGTGTGG | 0.34
48 | TAGGTCACGTGCCTGG | 0.12
49 | TTGGACACGTGCTGTT | -0.12
50 | TGTTCCACGTGGATAT | 0.02
51 | ATGGTCACGTGAATAG | 0.12
52 | TTGTACACGTGATAGT | 0.18
53 | GGGTGCACGTGTGCGA | -0.01
54 | TGTGGCACGTGTTCGT | -0.12
55 | GGGTGCACGTGTATGA | 0.04
56 | CGGTACACGTGTGGAG | 0.24
57 | AGTAACACGTGCTGGT | -0.1
58 | GGAGGCACGTGGACGT | -0.11
59 | GGTGGCACGTGCGGTC | -0.01
60 | AGCATCACGTGGAGGT | 0.18
61 | AAACGCACGTGTGTGG | -0.11
62 | ATCGACACGTGTGAGT | 0.2
63 | ATTTACACGTGGGAAG | 0.07
